# According to PubChem BioAssay AID485294 (National Center for Advancing Translational Sciences (NCATS), 2010):
# About 150 (0.041%) of roughly 370,000 compounds were called active. The inconclusive results got no clear call from the source; some entries with a clear call stand among them for comparison. Calls follow the shape of the dose curve; as a rule, active = well fitted inhibition curve with a large enough effect; inconclusive = small, poorly fitted or top-dose-only effect; inactive = flat fitted curve, though single readings scatter. No potency is given beside an inconclusive call; the fits are too rough.
# Molecular target: Beta-lactamase (Escherichia coli (strain K12)) (UniProt P00811)
# UniProt P00811, sequence (P00811 whole entry, looked up): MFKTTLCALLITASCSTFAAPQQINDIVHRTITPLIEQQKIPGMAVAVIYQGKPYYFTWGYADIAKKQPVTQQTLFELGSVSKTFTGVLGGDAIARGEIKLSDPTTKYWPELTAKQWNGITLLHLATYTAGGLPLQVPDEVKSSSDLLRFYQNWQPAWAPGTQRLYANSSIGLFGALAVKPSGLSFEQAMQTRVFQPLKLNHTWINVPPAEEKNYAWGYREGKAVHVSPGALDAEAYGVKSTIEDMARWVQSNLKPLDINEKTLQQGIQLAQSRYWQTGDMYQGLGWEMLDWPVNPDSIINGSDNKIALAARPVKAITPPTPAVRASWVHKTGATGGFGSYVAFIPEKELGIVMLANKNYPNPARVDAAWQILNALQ
# Assay: qHTS Inhibitors of AmpC Beta-Lactamase (assay with detergent); also: nearly all actives have a fitted effect of over 25% in size;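 as to activity change, negative = inhibition: 0% = no-compound wells and -100% = no-enzyme wells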
# Conditions: AmpC hydrolysis of nitrocefin, absorbance 480 nm, 0.01% Triton; activity change, negative = inhibition: at 114 µM (top of the series)
# Outline: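 20 mM phosphate pH 7.0 + 0.01% (detergent screen) or 0.0001% Triton X-100; 5.3 nM AmpC reagent; cpd preinc 15 min RT; nitrocefin (800 uM stock) to start; A480 q20 s × 4 min; Activity was normalised to no-enzyme and no-compound control wells.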
# Potency is read from the fitted curve at half-maximal effect; tags tell the direction and shape of the fitted curve.
SMILES,Potency,"activity change, negative = inhibition"
CC(=O)[C@H]1CC[C@H]2[C@@H]3CCC4=CC(=O)CC[C@]4(C)[C@H]3[C@H](O)C[C@]12C,"inconclusive [inhibitor, full curve, poor fit]",–
NNC(=O)c1cncn1-c1ccc(F)cc1,"inconclusive [inhibitor, partial curve]",–
COCCN(C(=O)COC(=O)CCc1ccc(OC)cc1)c1c(N)n(Cc2ccccc2)c(=O)[nH]c1=O,"inconclusive [inhibitor, full curve, poor fit]",–
CCOc1ccc(CCNC(=O)c2cccc(-n3cnnn3)c2)cc1OCC,"inconclusive [inhibitor, partial curve, poor fit]",–
Cc1ccc(-c2nnc(-c3cccc(NC(=O)c4cccs4)c3)o2)cc1,"inconclusive [inhibitor, partial curve]",–
CSc1cccc(NC(=O)CN2CCN(Cc3ccccc3C)S2(=O)=O)c1,–,inactive: 1.66%
Cc1cc2ccccc2n1CCNC(=O)c1ccccc1,–,inactive: -2.33%
COc1ccc(Cl)cc1NC(=O)CN(C)C(=O)c1cc(-c2ccncc2)nc2ccccc12,–,inactive: 10.1%
CC(=O)Nc1ccc(NC(=O)CSc2nc3nc(-c4cccs4)cc(C(F)(F)F)c3c(=O)[nH]2)cc1,–,inactive: -1.75%
Cc1ccc2cc(C#N)c(N3CCCC3)nc2c1C,"inconclusive [inhibitor, single point]",–
CC(C(=O)Nc1ccc(C#N)cc1)N(C)CC(=O)Nc1ccccc1Br (configuration not stated),"inconclusive [inhibitor, partial curve]",–
CC(c1ccco1)N(C(=O)C12CC3CC(CC(C)(C3)C1)C2)c1ccccn1 (configuration not stated),–,inactive: -6.16%
O=C(CN1CCN(c2ccccc2)CC1)Nc1ccc(F)cc1,"inconclusive [inhibitor, full curve]",–
COc1ccc(C2SCC(=O)Nc3c2c(=O)[nH]n3C2CCCCCC2)cc1 (configuration not stated),"inconclusive [inhibitor, partial curve, poor fit]",–
COc1ccc(C2CC(=O)N3CN(c4ccccc4F)CSC3=C2C#N)cc1OC (configuration not stated),"inconclusive [inhibitor, full curve]",–
CC(C)C[C@H](NC(=O)c1[nH]cnc1C(=O)N[C@@H](Cc1ccccc1)C(=O)OC(C)(C)C)C(=O)OCc1ccccc1,–,inactive: -20.7%
Cc1cc(Nc2cccc(Cl)c2)nc(NCc2ccccc2)n1,"inconclusive [inhibitor, full curve, poor fit]",–
COC(=O)Nc1c(C)nn(Cc2ccccc2C)c1C,"inconclusive [inhibitor, partial curve, poor fit]",–
O=c1[nH][nH]c(-c2ccccc2)c1C=Nc1ccc(C(F)(F)F)cc1,"inconclusive [inhibitor, full curve, poor fit]",–
COc1ccc(CCNC(=O)c2ccc3c(c2)OCO3)cc1,"inconclusive [inhibitor, full curve, poor fit]",–
Cc1ccc(-c2cc(-c3cccc(F)c3)n[nH]2)c(O)c1,"inconclusive [inhibitor, full curve, poor fit]",–
COc1ccc(Cl)cc1C(=O)NNC(=O)CCNC(C)=O,–,inactive: 1%
O=C1OC(CC(=O)N(Cc2nnc(-c3ccccc3Cl)o2)C2CC2)c2ccccc21 (configuration not stated),"inconclusive [inhibitor, single point]",–

SMILES,Potency,"activity change, negative = inhibition"
CCC(C(=O)Nc1nc(C)c(C)s1)c1ccccc1 (configuration not stated),"inconclusive [inhibitor, full curve]",–
C=CCc1ccccc1OCC(O)CN1CCN(C(=O)OCC)CC1 (configuration not stated),–,inactive: -9.71%
Cc1cc(-c2ccc(C(C)C)c(S(=O)(=O)N3CCN(c4ccccc4)CC3)c2)on1,"inconclusive [inhibitor, full curve, poor fit]",–
Cc1nnc(N(C(=O)c2cnccn2)c2ccccc2)s1,"inconclusive [inhibitor, single point]",–
O=C(CNCc1ccccn1)Nc1ccc([N+](=O)[O-])cc1C(=O)Nc1ccccc1F,"inconclusive [inhibitor, partial curve]",–
Cc1ccc(S(=O)(=O)N(C)c2ccc(OC(=O)CN3C(=O)NC4(CCCC4)C3=O)cc2)cc1C,"inconclusive [inhibitor, full curve, poor fit]",–
CC1CCCCN1S(=O)(=O)c1ccc(S(=O)(=O)N2CCCC2)cc1 (configuration not stated),–,inactive: 0.0348%
Cc1cc(Cl)ccc1N=C1N=C(N)c2ccccc21,"inconclusive [inhibitor, partial curve, poor fit]",–
N#CC1=C(N)Oc2n[nH]c(-c3ccccc3)c2C1c1ccncc1 (configuration not stated),"inconclusive [inhibitor, full curve, poor fit]",–
CC(C)CCN1C(Nc2ccccc2)=NC[C@@H]1CC(C)C,"inconclusive [inhibitor, partial curve, poor fit]",–
O=C(Nc1cccc(Oc2ccc(C(=O)O)c(C(=O)O)c2)c1)c1ccc(-c2ccccc2)cc1,–,inactive: 0.383%
COc1ccccc1C(=O)Nc1nnc(-c2ccc(F)cc2)s1,"inconclusive [inhibitor, partial curve]",–
O=C(COC(=O)CNC(=O)C1CCCCC1)Nc1ccc(Cl)cn1,"inconclusive [inhibitor, full curve, poor fit]",–
CC(C)(C)c1ccc(C(=O)NCC(=O)NNC(=O)c2ccccc2O)cc1,"inconclusive [inhibitor, full curve, poor fit]",–
Cc1cccc(NC(=O)c2ccc(N3C(=O)C4CCCCC4C3=O)cc2)c1C (configuration not stated),–,inactive: -3.83%
NS(=O)(=O)c1cccc(NC(=O)CC2(CC(=O)O)CCCC2)c1,–,inactive: -9.76%
CN(C)Cc1nc2c([nH]1)c(=O)n(C)c(=O)n2C,"inconclusive [inhibitor, partial curve]",–
CC(C)c1ccc(OCc2ccc(C(=O)NN3CCN(C)CC3)o2)cc1,–,inactive: -7.43%
CC1=Nc2ccccc2/C1=C\c1sc(Nc2ccc(C)cc2)nc1O,"inconclusive [inhibitor, partial curve]",–
CCn1c2ccccc2c2cc(NC(=O)Nc3ccc([N+](=O)[O-])cc3C)ccc21,"inconclusive [inhibitor, single point]",–
Cc1ccc(C(=O)N/C(=C/c2ccco2)C(=O)N2CCC(C)CC2)cc1,–,inactive: -3.48%
O=C(COc1nncc2ccccc12)Nc1ccc(Br)cc1F,"inconclusive [inhibitor, full curve, poor fit]",–
CCC(=O)c1ccc(N2CCCCC2)c(F)c1,–,inactive: -0.925%

SMILES,Potency,"activity change, negative = inhibition"
COc1ccccc1C(=O)Nc1ncc2c(n1)CC(c1ccco1)CC2=O (configuration not stated),"inconclusive [inhibitor, full curve, poor fit]",–
COC(=O)N/N=C/c1ccccc1Cl,"inconclusive [inhibitor, full curve, poor fit]",–
C/C(=N\S(=O)(=O)c1ccc(C)cc1)N1CCCCC1,–,inactive: 0.844%
COc1cc(CC(=O)OCC(=O)NCCc2ccc(S(N)(=O)=O)cc2)cc(OC)c1OC,–,inactive: 7.46%
O=C(CN1c2ccccc2S(=O)(=O)c2ccccc21)NCc1ccc(F)cc1,–,inactive: -1.89%
COC(=O)c1ccc(CSc2nc3sc4c(c3c(=O)n2C)CCCC4)o1,"inconclusive [inhibitor, partial curve]",–
CCCCCOc1ccc(C2NC(=O)NC2=O)cc1 (configuration not stated),"inconclusive [inhibitor, full curve, poor fit]",–
CCOC(=O)C1=C(C)N=c2s/c(=C\c3ccc(OC(C)=O)cc3)c(=O)n2C1/C=C/c1ccccc1 (configuration not stated),"inconclusive [inhibitor, full curve]",–
Cc1ccc(-n2nc(C)c3c(C)cc(=O)n(CC(=O)N4CCCc5ccccc54)c32)cc1,–,inactive: -2.7%
Cc1ccccc1-c1nnc(NC(=O)CSc2nc3ccccc3s2)s1,"inconclusive [inhibitor, partial curve, poor fit]",–
CCOc1cc(C2C3=C(CC(C)(C)CC3=O)N(CCCOC)C3=C2C(=O)CC(C)(C)C3)ccc1O,"inconclusive [inhibitor, full curve, poor fit]",–
Cc1cc(C)c(OCC(=O)NCC(C)(C)N2CCOCC2)c(C)c1,"inconclusive [inhibitor, partial curve, poor fit]",–
CC(C)CN(C(=O)COC(=O)CSc1ccccc1)c1c(N)n(Cc2ccccc2)c(=O)[nH]c1=O,"inconclusive [inhibitor, full curve, poor fit]",–
CCc1cccc2c(C=C(C#N)C#N)cn(CC(=O)N3CCCC3)c12,"inconclusive [inhibitor, full curve, poor fit]",–
O=C(NCc1ccc(Cl)cc1)C1CCCN1C(=O)Nc1ccc(F)cc1 (configuration not stated),"inconclusive [inhibitor, full curve, poor fit]",–
O=C(N/N=C/c1ccc(O)cc1)c1cccc(N/N=C/c2ccc(O)cc2)c1,–,inactive: 4.31%
O=C(NCc1cccnc1)Nc1ccc(Br)cc1,"inconclusive [inhibitor, full curve, poor fit]",–
CCN(CC)CCCN(Cc1cc2cc3c(cc2[nH]c1=O)OCCO3)C(=O)Nc1ccc(F)cc1,–,inactive: 11.2%
O=C(CSc1ncnc2c1cnn2-c1ccccc1Cl)N1CCN(C(=O)c2ccco2)CC1,"inconclusive [inhibitor, full curve, poor fit]",–
O=C(Cn1ncn2cccc2c1=O)N1CCCCC1,"inconclusive [inhibitor, partial curve]",–
O=C1CCCC2=C1C(c1ccccc1)CC(=O)N2c1ccccc1 (configuration not stated),"inconclusive [inhibitor, full curve, poor fit]",–
